Measurements taken from the CheMixHub viscosity set.

Which viscosity (293.15 K, 101 kPa) does the source give for `CC(C)CCO` here?
The viscosity was 4.26 ± 0.09 mPa·s [study A] and 4.376 ± 0.12 mPa·s [study B] and 4.366 ± 0.043 mPa·s [study C] and 4.385 ± 0.05 mPa·s [study D].

What about the viscosity (298.15 K, 101 kPa) of the same molecule?
Its viscosity is 3.756 ± 0.066 mPa·s [study A] and 3.74 ± 0.08 mPa·s [study B] and 3.748 ± 0.034 mPa·s [study C] and 3.48 ± 0.04 mPa·s [study D] and 3.79 ± 0.044 mPa·s [study E] and 3.724 ± 0.058 mPa·s [study F].

And the viscosity (303.15 K, 101 kPa)?
The viscosity was 3.25 ± 0.07 mPa·s [study A] and 3.267 ± 0.056 mPa·s [study B] and 3.296 ± 0.038 mPa·s [study C] and 3.227 ± 0.051 mPa·s [study D].

And the viscosity (303.15 K, 101.33 kPa)?
The viscosity was 3.399 ± 0.034 mPa·s [study A] and 3.033 ± 0.037 mPa·s [study B] and 2.96 ± 0.019 mPa·s [study C] and 3.191 ± 0.038 mPa·s [study D].

What about the viscosity (313.15 K, 101 kPa) of the same molecule?
Its viscosity is 2.35 ± 0.05 mPa·s [study A] and 2.376 ± 0.063 mPa·s [study B] and 2.429 ± 0.044 mPa·s [study C] and 2.392 ± 0.026 mPa·s [study D] and 2.529 ± 0.029 mPa·s [study E].

Which viscosity (298.15 K, 101.33 kPa) does the source give for `CCOCCO` here?
The viscosity was 1.78 ± 0.07 mPa·s [study A] and 1.175 ± 0.012 mPa·s [study B] and 1.838 ± 0.013 mPa·s [study C] and 1.784 ± 0.042 mPa·s [study D] and 1.784 ± 0.021 mPa·s [study E] and 2.054 ± 0.013 mPa·s [study F].

And the viscosity (303.15 K, 101 kPa)?
The viscosity was 1.572 ± 0.064 mPa·s [study A] and 1.845 ± 0.034 mPa·s [study B] and 1.572 ± 0.16 mPa·s [study C] and 1.845 ± 0.47 mPa·s [study D].

And the viscosity (303.15 K, 101.33 kPa)?
Its viscosity is 1.64 ± 0.07 mPa·s [study A] and 1.629 ± 0.026 mPa·s [study B] and 1.644 ± 0.012 mPa·s [study C] and 1.587 ± 0.037 mPa·s [study D] and 1.643 ± 0.042 mPa·s [study E].

What about the viscosity (308.15 K, 101.33 kPa) of the same molecule?
Its viscosity is 1.46 ± 0.06 mPa·s [study A] and 1.37 ± 0.066 mPa·s [study B] and 1.471 ± 0.011 mPa·s [study C] and 1.427 ± 0.034 mPa·s [study D].

And the viscosity (313.15 K, 101.33 kPa)?
Its viscosity is 1.34 ± 0.05 mPa·s [study A] and 1.333 ± 0.01 mPa·s [study B] and 1.281 ± 0.031 mPa·s [study C] and 1.293 ± 0.034 mPa·s [study D].

± gives the uncertainty stated by the source. A number of entries come with more than one value. They are shown here; other results are not. The source may hold further records. Values that stand side by side are repeats across runs, samples, wells, individuals or studies. What stands in brackets tells the records apart. Letters count within one entry.
